From the supplement of paper PMC7826260
The list shows a part of the results. The data describe in vitro nicking of single-stranded DNA by Rep domains (1 h at 37 °C, 3 µM enzyme); the outer parts of the 90-letter strands are left off. Numbers give uncut DNA relative to the enzyme-free pool, as log2; the lower, the more was cut; hits are not called. Reads are scaled to the total, so uncut sequences can rise above 0 when many others are cut.

What was measured:
Test in all cases: uncleaved DNA left, log2 of reads against the no-enzyme library (log2 ratio); higher = less cleavage (more negative = more Rep cleavage of the k-mer); sequences stand for … in CTCGTCCG…ACCGGAGA
[1] = test system: T1, Rep nickase domain of Muscovy duck circovirus
T1 sequence (residues 1-111, tag not shown): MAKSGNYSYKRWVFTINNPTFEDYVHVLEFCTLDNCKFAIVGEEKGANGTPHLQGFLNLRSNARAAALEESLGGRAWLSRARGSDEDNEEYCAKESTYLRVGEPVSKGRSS
Description: (§1)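 A pool of 90-nt single-stranded DNAs with seven random bases just before the constant AC of the nick site (name = the seven bases) was cut by 3 µM recombinant His6-SUMO-tagged Rep nickase domain (300 nM DNA, 50 mM HEPES pH 8.0, 50 mM NaCl, 1 mM MnCl2, 1 h, 37 °C, three replicates). Uncut DNA was amplified and sequenced.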

[2] = test system: T2, Rep nickase domain of banana bunchy top virus
T2 sequence (residues 1-94, tag not shown): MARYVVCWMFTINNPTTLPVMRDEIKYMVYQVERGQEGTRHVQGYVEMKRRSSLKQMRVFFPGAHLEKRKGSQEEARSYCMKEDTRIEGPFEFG
Description: as §1

[3] = test system: T3, Rep nickase domain of cabbage leaf curl virus
T3 sequence (residues 1-116, tag not shown): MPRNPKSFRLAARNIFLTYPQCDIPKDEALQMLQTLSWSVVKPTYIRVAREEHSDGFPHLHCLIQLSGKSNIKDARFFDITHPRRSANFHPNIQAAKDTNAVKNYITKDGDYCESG
Description: as §1

[4] = test system: T4, Rep nickase domain of chickpea chlorotic dwarf virus
T4 sequence (residues 1-124, tag not shown): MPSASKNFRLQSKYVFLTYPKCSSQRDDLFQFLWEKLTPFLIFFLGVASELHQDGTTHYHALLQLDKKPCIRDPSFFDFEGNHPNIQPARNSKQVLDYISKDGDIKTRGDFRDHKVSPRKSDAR
Description: as §1

[5] = test system: T5, Rep nickase domain of faba bean necrotic yellows virus
T5 sequence (residues 1-98, tag not shown): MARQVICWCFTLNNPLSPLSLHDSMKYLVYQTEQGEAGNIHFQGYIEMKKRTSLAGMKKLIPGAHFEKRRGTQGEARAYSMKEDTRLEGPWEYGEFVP
Description: as §1

[6] = test system: T6, Rep nickase domain of maize striate mosaic virus
T6 sequence (residues 1-117, tag not shown): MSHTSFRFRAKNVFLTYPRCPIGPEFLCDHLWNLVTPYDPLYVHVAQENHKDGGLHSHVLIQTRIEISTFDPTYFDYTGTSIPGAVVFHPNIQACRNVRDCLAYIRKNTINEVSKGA
Description: as §1

[7] = test system: T7, Rep nickase domain of porcine circovirus 2
T7 sequence (residues 2-116, tag not shown): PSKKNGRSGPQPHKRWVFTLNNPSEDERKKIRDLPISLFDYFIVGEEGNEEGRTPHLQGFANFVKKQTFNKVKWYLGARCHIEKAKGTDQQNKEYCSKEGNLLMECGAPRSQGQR
Description: as §1

[8] = test system: T8, Rep nickase domain of tomato golden mosaic virus
T8 sequence (residues 1-124, tag not shown): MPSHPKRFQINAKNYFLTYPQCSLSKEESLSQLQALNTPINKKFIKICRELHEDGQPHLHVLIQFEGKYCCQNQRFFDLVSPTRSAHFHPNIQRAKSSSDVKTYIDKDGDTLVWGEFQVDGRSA
Description: as §1

[9] = test system: T9, Rep nickase domain of tomato yellow leaf curl virus
T9 sequence (residues 1-136, tag not shown): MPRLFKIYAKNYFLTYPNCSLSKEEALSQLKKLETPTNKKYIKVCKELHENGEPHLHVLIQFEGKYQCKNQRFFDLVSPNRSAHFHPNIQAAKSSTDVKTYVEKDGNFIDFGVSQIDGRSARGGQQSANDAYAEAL
Description: as §1

[10] = test system: T10, Rep nickase domain of wheat dwarf virus
T10 sequence (residues 1-137, tag not shown): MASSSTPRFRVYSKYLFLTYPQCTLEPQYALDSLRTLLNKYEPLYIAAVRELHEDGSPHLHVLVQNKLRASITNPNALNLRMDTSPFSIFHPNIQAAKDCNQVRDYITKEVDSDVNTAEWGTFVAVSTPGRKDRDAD
Description: as §1

| Sequence | uncleaved DNA left (log2) [1] | uncleaved DNA left (log2) [2] | uncleaved DNA left (log2) [3] | uncleaved DNA left (log2) [4] | uncleaved DNA left (log2) [5] | uncleaved DNA left (log2) [6] | uncleaved DNA left (log2) [7] | uncleaved DNA left (log2) [8] | uncleaved DNA left (log2) [9] | uncleaved DNA left (log2) [10] |
| --- | --- | --- | --- | --- | --- | --- | --- | --- | --- | --- |
| GATTAGT | -2.52 | -2.67 | 0.12 | -0.359 | -0.0495 | -0.0524 | -2.82 | 0.0475 | 0.151 | 0.11 |
| TAGATGG | 0.152 | -0.0391 | -0.0162 | 0.38 | 0.0836 | -0.0359 | 0.0267 | -0.0147 | -0.0537 | -0.0135 |
| CCTGGAG | -0.00685 | -0.0875 | -0.811 | -0.339 | -0.0387 | -1.02 | 0.0444 | -0.0487 | -0.0102 | -0.0372 |
| TACGTTG | 0.212 | -0.00714 | -0.161 | -0.548 | 0.193 | -0.498 | 0.206 | 0.0859 | 0.0379 | 0.0665 |
| AAAGGCC | 0.121 | 0.108 | 0.155 | 0.369 | 0.08 | 0.00346 | 0.0728 | 0.0675 | -0.0418 | 0.156 |
| GCGAGTG | -0.0616 | -0.0401 | -0.179 | 0.332 | -0.168 | 1.53 | -0.0167 | -0.146 | -0.102 | -0.0743 |
| ACGGTCC | 0.0422 | 0.0654 | 0.0623 | -0.0257 | -0.0965 | -0.0315 | -0.231 | 0.0466 | -0.035 | 0.00942 |
| GCGGTAA | -0.0988 | 0.135 | 0.345 | 0.794 | -0.0827 | 1.11 | 0.093 | 0.116 | -0.0355 | 0.051 |
| CCCCTTG | 0.00999 | -0.125 | -0.714 | -1.57 | 0.00596 | -1.09 | -0.23 | -0.148 | -0.259 | -0.234 |
| CCGGAAG | 0.145 | 0.049 | -0.563 | -0.318 | 0.204 | -0.541 | 0.234 | 0.0349 | -0.042 | -0.0466 |
| GGGATCG | 0.04 | 0.113 | 0.66 | 1.66 | -0.0377 | 1.77 | 0.155 | -0.028 | -0.101 | 0.106 |
| CCTTCGG | -0.0905 | -0.121 | 0.419 | 1.14 | -0.086 | 1.24 | -0.0502 | 0.0652 | -0.0793 | -0.0231 |
| ACTGCAC | -0.0806 | -0.0823 | -0.26 | -0.225 | 0.0368 | -0.778 | -0.11 | -0.0182 | -0.164 | -0.106 |
| GTGCGCT | -0.0652 | -0.0779 | -0.342 | -0.26 | 0.0996 | -0.28 | 0.0561 | -0.064 | -0.0761 | -0.134 |
| AAGGAAC | -0.0567 | -0.0482 | 0.0661 | 0.671 | -0.045 | 0.314 | 0.124 | 0.0652 | -0.124 | 0.00189 |
| ACACCGC | -0.137 | -0.0695 | -0.592 | -0.566 | -0.0511 | -0.976 | 0.122 | -0.0812 | -0.255 | -0.148 |
| CGGCTCA | 0.0327 | 0.071 | 0.0274 | -0.0197 | 0.0414 | 0.55 | 0.0189 | -0.0499 | 0.0996 | 0.0298 |
| GATCTGC | 0.0351 | -0.0763 | -0.062 | 0.106 | 0.0366 | -0.425 | 0.153 | -0.0819 | -0.0118 | 0.00188 |
| GTCAGGA | 0.0748 | 0.0607 | 0.356 | 0.741 | 0.00436 | 0.567 | 0.128 | 0.125 | 0.11 | 0.0186 |
| AAATAAC | -0.0134 | -0.0362 | -1.37 | -2.53 | -0.0438 | -1.2 | -0.125 | -0.096 | -0.092 | -0.199 |
| ATTTACG | -0.0796 | -0.0422 | -0.96 | -0.396 | -0.021 | -1.14 | 0.204 | -0.0738 | -0.109 | -0.143 |
| ACTAGTT | -0.0881 | -0.0337 | -0.435 | -1.82 | -0.0238 | -0.56 | -1.01 | 0.0968 | -0.0391 | -0.0686 |
| GTACTAT | 0.149 | 0.0755 | 0.513 | 0.938 | 0.138 | 1.98 | 0.184 | 0.228 | 0.183 | 0.197 |
| AATTCCT | -3.67 | -3.31 | -0.647 | -3.06 | -0.0153 | -0.563 | -4.04 | -0.191 | -0.0911 | -0.147 |
| CGTAGCC | 0.0656 | 0.0284 | 0.263 | 0.625 | 0.0519 | 0.547 | 0.0484 | -0.0585 | 0.043 | 0.0774 |
| CTTTCAA | -0.0557 | 0.0766 | -0.0295 | -0.149 | -0.0594 | -0.715 | -0.0399 | -0.0938 | 0.0021 | 0.0751 |
| GAAATTC | 0.0688 | 0.04 | 0.279 | 0.594 | 0.0469 | 0.758 | 0.0245 | -0.00358 | 0.0678 | 0.0571 |
| ACCGGCA | -0.179 | 0.0336 | -0.173 | -0.111 | -0.0787 | -0.774 | 0.0789 | -0.0742 | -0.0208 | -0.103 |
| GTTCCTC | -0.0234 | 0.172 | 0.44 | 0.884 | -0.00484 | 1.64 | 0.0771 | 0.0667 | 0.205 | 0.14 |
| GTTGCTG | 0.0601 | -0.0202 | -0.228 | 0.0392 | -0.0229 | -0.0556 | 0.111 | -0.0148 | -0.171 | -0.129 |
